{"source": "PubChem BioAssay AID1768", "about": "(National Center for Advancing Translational Sciences (NCATS), 2009)", "note": "The campaign covered roughly 270,000 compounds. About 620 (0.23%) were called active. Inconclusive means that the source gave no clear call. Such entries were picked first, then a sample of the others. Calls follow the shape of the dose curve; as a rule, active = well fitted inhibition curve with a large enough effect in the polarisation, with a control signal flat (not every such curve was filed as active); inconclusive = small, poorly fitted or top-dose-only effect, or effect the other way, or a change in a side signal; inactive = no such curve, though single readings can be large or run the other way; the % refers to the polarisation. Potencies of inconclusive entries are doubtful fits and often do not repeat. A note “side channel” means that the fit belongs to a control or component signal, not to the main read-out. Potency is read from the fitted curve at half-maximal effect; tags tell the direction and shape of the fitted curve or compound fluorescence and quenching.", "data": [{"target": "Menin (Homo sapiens) (UniProt O00255)", "sequence (O00255 whole entry, looked up)": "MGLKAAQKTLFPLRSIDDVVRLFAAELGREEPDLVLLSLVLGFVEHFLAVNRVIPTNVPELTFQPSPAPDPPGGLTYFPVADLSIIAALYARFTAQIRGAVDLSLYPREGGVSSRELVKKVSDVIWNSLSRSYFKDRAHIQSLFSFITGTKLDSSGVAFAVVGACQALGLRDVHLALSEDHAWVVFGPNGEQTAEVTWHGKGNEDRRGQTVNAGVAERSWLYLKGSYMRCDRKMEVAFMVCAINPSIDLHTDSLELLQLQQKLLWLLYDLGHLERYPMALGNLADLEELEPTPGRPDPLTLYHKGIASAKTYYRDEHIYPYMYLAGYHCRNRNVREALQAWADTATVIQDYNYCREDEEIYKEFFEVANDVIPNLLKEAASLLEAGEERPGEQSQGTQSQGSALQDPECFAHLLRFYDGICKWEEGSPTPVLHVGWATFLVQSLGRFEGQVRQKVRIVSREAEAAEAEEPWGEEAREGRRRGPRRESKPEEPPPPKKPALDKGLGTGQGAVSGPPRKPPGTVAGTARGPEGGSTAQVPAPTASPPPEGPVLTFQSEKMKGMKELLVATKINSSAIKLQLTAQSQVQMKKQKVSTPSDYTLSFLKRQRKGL", "assay": "qHTS Assay for Inhibitors Targeting the Menin-MLL Interaction in MLL Related Leukemias: Competition With Texas Red Labeled MLL-derived Mutant Peptide; as to FP activity change, negative = inhibition: % of control where 0% means no effect", "details": "fluorescence polarization; FP activity change, negative = inhibition: at 61.6 µM (top of the series)", "values": [{"smiles": "CCC(C)NCCOc1ccc(C(C)(C)c2ccccc2)cc1", "note": "(configuration not stated)", "Potency": "inconclusive: 5.62 µM [fluorescent, side channel, single point]"}, {"smiles": "CCOc1ccc(NC(=S)N2CCC(C(O)(c3ccccc3)c3ccccc3)CC2)cc1", "Potency": "inconclusive: 39.8 µM [inhibitor, single point]"}, {"smiles": "COc1ccc(NC(C)C(=O)Nc2ccc(C#N)cc2)cc1Cl", "note": "(configuration not stated)", "Potency": "inconclusive: 12.6 µM [quencher, side channel, partial curve]"}, {"smiles": "CCCC[C@@]1(C2CCCC2)Cc2cc(OCC(=O)O)c(Cl)c(Cl)c2C1=O", "Potency": "inconclusive: 14.1 µM [quencher, side channel, partial curve]"}, {"smiles": "Nc1nn2c(-c3ccccc3)cc(=O)[nH]c2c1N=Nc1ccc(Br)cc1", "Potency": "inconclusive: 8.91 µM [quencher, side channel, single point]"}, {"smiles": "CC(C)CC1=NN(C(=O)c2cccnc2)C(O)(C(F)(F)F)C1", "note": "(configuration not stated)", "Potency": "inconclusive: 31.6 µM [inhibitor, single point]"}, {"smiles": "O=C1c2cccc3c(N4CCOCC4)c([N+](=O)[O-])cc(c23)C(=O)N1c1cccc2ccccc12", "Potency": "inconclusive: 7.08 µM [quencher, side channel, single point]"}, {"smiles": "Cc1ccc2cc(CN(C(=O)c3ccco3)c3ccccc3)c(=O)[nH]c2c1", "Potency": "inconclusive: 1.26 µM [inhibitor, full curve, poor fit]"}, {"smiles": "COC(=O)c1cn(NC(=O)c2cc(OC)c(OC)c(OC)c2)c(=O)c2ccccc12", "Potency": "inconclusive: 39.8 µM [fluorescent, side channel, single point]"}, {"smiles": "CN1CCNC(=O)C1CC(=O)NCC1(c2ccccc2)CCCCC1", "note": "(configuration not stated)", "Potency": "inconclusive: 22.4 µM [fluorescent, side channel, single point]"}, {"smiles": "Cc1ccc(C)c(CN2CCC(CNC(=O)Nc3ccc(C)c(C)c3)CC2)c1", "Potency": "inconclusive: 25.1 µM [fluorescent, side channel, single point]"}, {"smiles": "Oc1ccc(NCc2cccc(OCc3ccc(F)cc3)c2)cc1", "Potency": "inconclusive: 15.8 µM [quencher, side channel, partial curve]"}, {"smiles": "CCOC(=O)CN1C2=NCCN2c2ccccc21", "Potency": "inconclusive: 39.8 µM [inhibitor, single point]"}, {"smiles": "COC(=O)c1ccc(NC(=O)c2cc(Cl)ccc2OC)cc1", "Potency": "inconclusive: 15.8 µM [inhibitor, partial curve]"}, {"smiles": "CCOc1ccc(NC(=O)Cc2ccc(NC3=NC4CS(=O)(=O)CC4S3)cc2)cc1", "note": "(configuration not stated)", "Potency": "inconclusive: 4.47 µM [inhibitor, single point]"}, {"smiles": "Cn1c(SCC(=O)Nc2cccc(F)c2)nc2c([nH]c3ccccc32)c1=O", "Potency": "inconclusive: 25.1 µM [inhibitor, single point]"}, {"smiles": "C=CCOC(/C=C/c1ccccc1)C[Si](C)(C)C", "note": "(configuration not stated)", "Potency": "inconclusive: 39.8 µM [inhibitor, single point]"}, {"smiles": "CC(Oc1ccc2c3c(c(=O)oc2c1)CCC3)C(=O)NCCN1CCOCC1", "note": "(configuration not stated)", "Potency": "inconclusive: 17.8 µM [inhibitor, partial curve]"}, {"smiles": "CCCC1CCC(c2ccc(/C(N)=N/O)cc2)CC1", "note": "(configuration not stated)", "Potency": "inconclusive: 10 µM [inhibitor, partial curve]"}, {"smiles": "COc1ccc(OC)c(NC(=O)Cn2c(-c3ccc(Cl)cc3)noc2=O)c1", "Potency": "inconclusive: 17.8 µM [quencher, side channel, partial curve]"}, {"smiles": "Cc1cc(C)nc(/N=C(\\N)N(Cc2ccccc2)Cc2ccccc2)n1", "Potency": "inconclusive: 28.2 µM [inhibitor, single point]"}, {"smiles": "COc1ccc2[nH]c(O)c(N=O)c2c1", "FP activity change, negative = inhibition": "inactive: -6.15%"}, {"smiles": "COC(=O)Nc1ccc(S(=O)(=O)N2CCC(Cc3ccccc3)CC2)cc1", "Potency": "inconclusive: 39.8 µM [quencher, side channel, single point]"}, {"smiles": "COc1cccc(Nc2ncc3nc(-c4cccs4)c(=O)n(Cc4cccs4)c3n2)c1", "Potency": "inconclusive: 2.24 µM [quencher, side channel, full curve]"}, {"smiles": "Cc1ccc2c(c1)C(c1ccccc1)N(C(=O)c1ccc(F)cc1)CC(=O)N2", "note": "(configuration not stated)", "Potency": "inconclusive: 22.4 µM [fluorescent, side channel, partial curve]"}, {"smiles": "CCn1c(CN2CCN(C(c3ccccc3)c3ccccc3)CC2)nc2c1c(=O)n(C)c(=O)n2C", "Potency": "inconclusive: 8.91 µM [fluorescent, side channel, partial curve]"}, {"smiles": "CCn1cc(C(=O)N/N=C(/C)c2ccc(F)cc2)c(=O)c2cc(F)c(N3CCCC3)cc21", "Potency": "inconclusive: 7.08 µM [inhibitor, single point]"}, {"smiles": "CCCOC(C(=O)OC1CCN(C)CC1)(c1ccccc1)c1ccccc1", "FP activity change, negative = inhibition": "inactive: -4.34%"}, {"smiles": "O=C(NCCC1=CCCCC1)C1CCN(Cc2cnn(-c3ccccc3)c2-n2cccc2)CC1", "Potency": "inconclusive: 1 µM [fluorescent, side channel, full curve]"}, {"smiles": "O=C1C2=C(C(=O)c3ccccc31)C1O[C@](c3ccsc3)(Cc3c1ccc1ccccc31)O2", "Potency": "inconclusive: 2.82 µM [quencher, side channel, partial curve]"}, {"smiles": "COc1ccc(C(=O)N/C(=C\\c2cccc3ccccc23)C(=O)NCCc2c[nH]c3ccccc23)cc1OC", "Potency": "inconclusive: 7.08 µM [inhibitor, single point]"}, {"smiles": "OC(COc1ccccc1CNCc1cccnc1)CN1CCc2ccccc2C1", "note": "(configuration not stated)", "Potency": "inconclusive: 8.91 µM [inhibitor, single point]"}, {"smiles": "COc1cc2[nH]c(=S)nc(NCc3cccnc3)c2cc1OC", "Potency": "inconclusive: 28.2 µM [inhibitor, partial curve]"}, {"smiles": "COc1ccc(CNC(=O)COc2cc3c(c4oc(=O)cc(C)c24)CCC(C)(C)O3)cc1OC", "FP activity change, negative = inhibition": "inactive: -5.94%"}, {"smiles": "O=C(NCCc1cccc(Cl)c1)c1cc([N+](=O)[O-])ccc1Cl", "Potency": "inconclusive: 22.4 µM [quencher, side channel, single point]"}, {"smiles": "Cc1nc2ccc(C(=O)O)cc2c2c1CC(C)S2", "note": "(configuration not stated)", "Potency": "active: 20 µM"}, {"smiles": "COc1ccc(C(=O)Nn2c(SCc3ccc([N+](=O)[O-])cc3)nc3ccccc3c2=O)cc1", "Potency": "inconclusive: 10 µM [inhibitor, partial curve]"}]}]}
